Measured values: patent US20130130922A1, “ANALYSIS OF METHYLATION SITES” (Centre for Addiction and Mental Health, priority 2011, published 2013)

System: DNA
Assay: Transalkylation activity of engineered MTases with synthetic AdoMet analogs
Conditions: double-alanine mutant vs original His6 tagged variant
Text: The other two MTases, M.HpaII and M.SssI, were subcloned as His6-tagged variants, and the purification procedures for obtaining AdoMet-free enzymes were established. In the second step, appropriate changes were produced, by site-directed mutagenesis, in the HpaII (Q104A/N335A) and SssI (Q142A/N370A) MTases, and the double-alanine mutants were obtained in a similar fashion.
The analysis was done as described above.

B1: HpaII (Q104A/N335A): His6-tagged M.HpaII C5 DNA methyltransferase (CCGG target site) double-alanine mutant Q104A/N335A (protein, UniProt P15446 1-358, looked up, variant Q104A N335A)
Type II methyltransferase …: MKDVLDDNLLEEPAAQYSLFEPESNPNLREKFTFIDLFAGIGGFRIAMQNLGGKCIFSSEWDEQAQKTYEANFGDLPYGDITLEETKAFIPEKFDILCAGFPCAAFSIAGKRGGFEDTRGTLFFDVAEIIRRHQPKAFFLENVKGLKNHDKGRTLKTILNVLREDLGYFVPEPAIVNAKNFGVPQNRERIYIVGFHKSTGVNSFSYPEPLDKIVTFADIREEKTVPTKYYLSTQYIDTLRKHKERHESKGNGFGYEIIPDDGIANAIVVGGMGRERNLVIDHRITDFTPTTNIKGEVNREGIRKMTPREWARLQGFPDSYVIPVSDASAYKQFGASVAVPAIQATGKKILEKLGNLYD
modifications: His6 tag
increase in transalkylation activity with synthetic AdoMet analogs as compared to the original His6 tagged variant: ~2 orders of magnitude
